Reference: patent publication US20210206855A1 (ADAGENE, published 2021)

Legend:
Experiment in all cases: flow cytometry on yeast displaying CTLA4; Normalized FACS Bound, human WT = 1
human CD80 (recombinant) = molecular target: T1, human CD80 (recombinant) (human, UniProt P33681 35-242, limits assumed, biotinylated where used in solution)
T1 construct: also called biotinylated CD80
T1 sequence (looked up): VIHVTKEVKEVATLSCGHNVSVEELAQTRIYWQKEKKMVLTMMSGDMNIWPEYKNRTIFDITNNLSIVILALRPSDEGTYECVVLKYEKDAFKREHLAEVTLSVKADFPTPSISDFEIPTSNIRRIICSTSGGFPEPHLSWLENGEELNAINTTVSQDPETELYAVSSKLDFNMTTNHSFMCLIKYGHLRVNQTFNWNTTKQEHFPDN

[1] = molecular target: T2, human CD86 (epitope mapping reagent) (human, UniProt P42081 24-247, limits assumed)
T2 sequence (looked up): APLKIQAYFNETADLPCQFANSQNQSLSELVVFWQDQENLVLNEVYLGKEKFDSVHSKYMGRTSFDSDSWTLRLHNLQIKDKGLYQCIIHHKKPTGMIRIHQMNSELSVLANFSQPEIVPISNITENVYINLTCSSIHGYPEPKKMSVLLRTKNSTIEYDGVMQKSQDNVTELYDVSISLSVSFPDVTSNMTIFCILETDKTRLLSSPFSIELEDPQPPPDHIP

mouse CD86 = molecular target: T3, mouse CD86 (mouse, UniProt P42082 24-244, limits assumed)
T3 sequence (looked up): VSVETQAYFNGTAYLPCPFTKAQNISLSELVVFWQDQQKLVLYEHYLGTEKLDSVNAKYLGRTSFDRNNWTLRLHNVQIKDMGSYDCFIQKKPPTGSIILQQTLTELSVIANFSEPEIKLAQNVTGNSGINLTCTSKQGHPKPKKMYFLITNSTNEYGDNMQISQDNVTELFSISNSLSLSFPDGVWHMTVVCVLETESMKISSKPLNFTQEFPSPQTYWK

binding result (human CD80 (recombinant)): binds | binding result [1]: binds | binding result (mouse CD86): binds
B1: human CTLA4 mutant ADS42AAA displayed on yeast (receptor)
chain: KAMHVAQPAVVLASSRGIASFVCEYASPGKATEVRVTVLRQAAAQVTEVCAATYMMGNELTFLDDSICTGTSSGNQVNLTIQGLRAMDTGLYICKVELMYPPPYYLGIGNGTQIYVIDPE
notes: A42 stays A
